Experimental data from paper PMC10703783, “Programmed cell death 11 modulates but not entirely relies on p53-HDM2 loop to facilitate G2/M transition in colorectal cancer cells” (Oncogenesis, 2023).

Target: T1, His-S-tagged full-length PDCD11 (programmed cell death 11) (human, UniProt Q14690 1-1871)
T1 construct: programmed cell death 11 (PDCD11), human, Gene ID 22984, 1871 amino acids, full length; also called PDCD11-FL; ALG-4; source: expressed and purified
Experiment: pull-down; GST pulldown in vitro; GST-tagged p53 or HDM2 (full length or truncations) as bait, His-S-tagged PDCD11 (full length or truncations) as prey
Settings: both partners purified

B1: GST-tagged full-length HDM2 (natural protein)
chain: not shown
notes: HDM2, full length; also called HDM2-FL; GST-HDM2; source: expressed and purified
Does B1 bind?
Result: binds
